# Measurements as given in PubChem BioAssay AID624296 (National Center for Advancing Translational Sciences (NCATS), 2012).
# The whole screen tested about 350,000 compounds, of which about 9,900 (2.8%) were called active. Inconclusive results, whose numbers are uncertain, are shown with a selection of clear calls. Calls come from the whole dose curve; as a rule, active = well fitted activation curve with a large enough effect; inconclusive = small, poorly fitted or top-dose-only effect; inactive = no such curve, though single readings can be large or run the other way. Potencies of inconclusive entries are left out as doubtful fits.
# Assay: A quantitative high throughput screen for small molecules that induce DNA re-replication in MCF 10a normal breast cells. Note: nearly all actives have a fitted effect of over 50% in size.
# Settings: MCF 10A DNA re-replication, Hoechst nuclear intensity, 48 h; series mostly up to 46.1 µM
# Potency is the fitted concentration of half-maximal effect; tags give direction and shape of the fitted curve.
row,SMILES,Potency
1,CCOc1ccc(-c2c(C(=O)N/N=C/c3ccc(C)s3)nnn2-c2nonc2N)cc1,inactive
2,O=C(Nc1ccc(N2CCOCC2)c(Cl)c1)c1cc(F)c(F)cc1Cl,inactive
3,CCCOc1ccc(/C(O)=C2\C(=O)C(=O)N(c3ccccn3)C2c2ccccc2F)cc1C (stereo unspecified),"inconclusive [activator, partial curve, poor fit]"
4,CC(C)(C)c1ccc(C(=O)N2CCN(C(=O)C3CCCCC3)CC2)cc1,inactive
5,c1ccc(-c2nc3c(ccc4ccccc43)[nH]2)nc1,inactive
6,Cc1ccc2cc(CN(CC3CCCO3)S(=O)(=O)c3c(C)ccc4nsnc34)c(=O)[nH]c2c1 (stereo unspecified),"inconclusive [activator, full curve, poor fit]"
7,Cc1csc2sc(-c3ccnc(SCC(=O)NCc4ccccc4)n3)c(C)c12,"inconclusive [activator, full curve, poor fit]"
8,CCOC(=O)C1CCN(S(=O)(=O)c2cc3c4c(c2)C(C)C(=O)N4CCC3)CC1 (stereo unspecified),inactive
9,CCc1ccc2[nH]c(=O)c(CN(Cc3ccccc3OC)Cc3nnnn3Cc3ccco3)cc2c1,"inconclusive [activator, full curve]"
10,CCOC(=O)C(Sc1ncc(C#N)c(N)n1)C(C)C (stereo unspecified),"inconclusive [activator, full curve, poor fit]"
11,CCOCCCNC(=O)Cn1cnc2c(cnn2-c2ccc(C)c(C)c2)c1=O,"inconclusive [activator, single point]"
12,O=C(/C=C/c1ccc(Cl)cc1Cl)Nc1ccc(CN2CCOCC2)cc1,active: 8.2 µM
13,Cc1ccc2[nH]c(O)c(N=Nc3nc4ccccc4s3)c2c1,inactive
14,CCN(CC)C(=O)C1CCCN(C/C=C/c2ccccc2)C1 (stereo unspecified),inactive
15,O=[N+]([O-])c1ccc(Oc2ccc(F)cc2)c2ccncc12,"inconclusive [activator, single point]"
16,CCOc1cccc(C(=O)Nc2nc(-c3ccc(S(=O)(=O)N4CCOCC4)cc3)cs2)c1,inactive
17,CCOc1ccc(NC(=S)Nc2ccccc2C2(C)CC2)cc1,"inconclusive [activator, partial curve]"
18,Cc1ccc(-n2nc3c(N4CCC(C(=O)NCc5ccccc5C)CC4)nnc(C)c3c2C)cc1,"inconclusive [activator, single point]"
19,Cc1ccc(Cl)cc1N1CCN(C(=O)CCS(=O)(=O)c2ccc3c(c2)NC(=O)CO3)CC1,"inconclusive [activator, partial curve, poor fit]"
20,Cn1ccnc1C1CCCCN1Cc1nc(Cc2cccc(C(F)(F)F)c2)no1 (stereo unspecified),"inconclusive [activator, full curve, poor fit]"
21,O=[N+]([O-])c1ccc(N2CCCC2)cc1NCc1ccccc1,"inconclusive [activator, single point]"
22,COc1ccc(/C=C(/CC(=O)Nc2ccccc2)c2nc3ccccc3s2)cc1,inactive
23,COc1ccccc1N1CC(C(=O)Nc2ccccc2N2CCCC2)CC1=O (stereo unspecified),"inconclusive [activator, full curve, poor fit]"
24,CC1CCC/C=C/C(=O)c2c(O)cc(O)cc2CC(=O)O1 (stereo unspecified),active: 1.03 µM

row,SMILES,Potency
1,COC(=O)c1c(-c2cccc(C)c2)csc1N,"inconclusive [activator, single point]"
2,CCCN(CCC)S(=O)(=O)c1ccc(C(=O)Nc2nnc(-c3cc(OC)cc(OC)c3)o2)cc1,"inconclusive [activator, full curve]"
3,O=C(C[N+]1(CC#Cc2ccccc2)CCCCC1)c1ccccc1,inactive
4,COC(=O)C1=C(COc2ccc(C=O)cc2OC)NC(=O)NC1c1cc(C)ccc1C (stereo unspecified),inactive
5,Brc1cccc(-c2n[nH]c(-c3ccccc3)n2)c1,"inconclusive [activator, single point]"
6,CC(=O)NCCc1ccc(S(=O)(=O)Nc2ccc(NC(=O)c3ccc(F)cc3)cc2)cc1,inactive
7,CC(=O)Nc1ccc(S(=O)(=O)N2CCN(c3nc(NC4CCCC4)c4ccccc4n3)CC2)cc1,"inconclusive [activator, single point]"
8,CCN(CC)CCNC(=O)c1ccc(NC(=O)Cc2ccccc2F)cc1,"inconclusive [activator, single point]"
9,COc1ccccc1OCCNC(=O)c1cccc(S(=O)(=O)N2CCN(C)CC2)c1,inactive
10,COc1ccc([N+](=O)[O-])cc1N(CC(=O)Nc1ccccc1C(=O)NC(C)C)S(C)(=O)=O,inactive
11,COc1ccc(-n2c(NC(=O)c3ccco3)c(C#N)c3nc4ccccc4nc32)cc1,active: 8.2 µM
12,CCOc1nc(Nc2ccc(OC)c(Cl)c2)nc(OCC)n1,"inconclusive [activator, single point]"
13,Cc1nc(N2CCC(C)CC2)c2c(C)c(C(=O)Nc3cccc(C(F)(F)F)c3)sc2n1,active: 20.6 µM
14,COc1ccc(CCNC(=O)Cc2ccc(OCc3ccccc3)c(OC)c2[N+](=O)[O-])cc1OCc1ccccc1,"inconclusive [activator, partial curve, poor fit]"
15,CC(C(=O)NC1CCCc2ccccc21)N1CCN(c2ccc(F)cc2)CC1 (stereo unspecified),"inconclusive [activator, full curve, poor fit]"
16,COc1ccc(Cc2nc(C(=O)Nc3ccc(Cl)cc3)cs2)cc1,"inconclusive [activator, single point]"
17,C=CCCCN(Cc1ccccc1)S(=O)(=O)c1ccccc1Br,"inconclusive [activator, single point]"
18,Cc1cc(C)n(-c2c(C)[nH]c3ccccc23)n1,inactive
19,CCOC(=O)c1sc(NC(=S)NC(=O)c2ccccc2Cl)c(C(=O)OCC)c1C,inactive
20,CCCc1nc2ccccc2c(C(=O)OCc2nnc(-c3cc(OC)c(OC)c(OC)c3)o2)c1CC,"inconclusive [activator, single point]"
21,O=C(Nc1ccccc1)Nc1ccc(-n2ccc(C(F)(F)F)n2)cc1,"inconclusive [activator, partial curve, poor fit]"
22,COc1ccccc1Nc1ncc(C(=O)N2CCC(C(N)=O)CC2)c2ccccc12,inactive
23,COCc1nnc(NC(=O)CS(=O)(=O)c2ccc(C)cc2)s1,inactive
24,COCCCN=C1NN=C(c2cc(C)n(Cc3ccccc3Cl)c2C)CS1,"inconclusive [activator, full curve, poor fit]"

row,SMILES,Potency
1,Cc1cc(O)ccc1N=Cc1c(C(F)(F)F)[nH][nH]c1=O,"inconclusive [activator, single point]"
2,CCc1cc(C(=O)OC)c(NC(=O)c2ccoc2C)s1,inactive
3,CCn1ncc(/C=N\NC(=O)c2ccc3c(c2)c(C)c(C)n3Cc2ccccc2)c1C,"inconclusive [activator, partial curve, poor fit]"
4,COc1ccccc1NC(=O)/C=C\c1ccco1,inactive
5,Cc1cccc(NNC(=O)C(=O)NNc2cccc(C)c2)c1,active: 6.51 µM
6,COc1ccc2c(c1)CCc1c(C(=O)Nc3ccn(Cc4ccc(C)cc4)n3)noc1-2,"inconclusive [activator, single point]"
7,C[C@@H](C(=O)N1CCN(c2ccccc2)CC1)N1C(=O)C2CC=CCC2C1=O (stereo partly specified),"inconclusive [activator, single point]"
8,CCNC(=S)N/N=C(\C)c1ccc2c(c1)OCCO2,"inconclusive [activator, partial curve, poor fit]"
9,CC1CCN(c2ccc3c(c2)S(=O)(=O)c2cccc(C(=O)NC[C@@H]4CCCO4)c2C3=O)CC1,"inconclusive [activator, single point]"
10,Cc1csc(SCC(=O)Nc2ccccc2[N+](=O)[O-])n1,inactive
11,CNCc1cc(Br)c(OCC(=O)Nc2ccccc2OC)c(OC)c1,"inconclusive [activator, single point]"
12,Cc1ccc(S(=O)(=O)N2CCCC(C(=O)NCc3ccccc3F)C2)cc1 (stereo unspecified),"inconclusive [activator, single point]"
13,Cc1ccc(-c2nc(NCc3ccco3)c3ccccc3n2)cc1,"inconclusive [activator, single point]"
14,COC(=O)c1c(C)n(-c2ccccc2)c2ccc(O)cc12,"inconclusive [activator, single point]"
15,COc1cc(C2C3C(=O)N(c4ccc(F)cc4)C(=O)C3ON2c2ccccc2)ccc1O (stereo unspecified),active: 14.1 µM
16,COC(=O)c1sc2nc(CSc3nc4ccc(C)cc4[nH]3)[nH]c(=O)c2c1C,inactive
17,COc1ccccc1NC(=S)NNC(=O)c1cc(C)nn1C,"inconclusive [activator, single point]"
18,Cc1ccc(NC(=O)CSc2ccc(-c3ccccn3)nn2)c(C)c1,"inconclusive [activator, full curve, poor fit]"
19,O=C(Nc1nncs1)c1cccnc1Cl,inactive
20,O=C(NCc1ccccc1)c1onc(CSc2ccccc2)c1C(=O)NCC1CC1,"inconclusive [activator, partial curve, poor fit]"
21,CCc1cc(/C(Cc2ccccn2)=N\Nc2ccccc2)c(O)cc1O,"inconclusive [activator, single point]"
22,COC(=O)c1ccc(/C=C/C(=O)OCC(=O)Nc2cc(C)on2)cc1,inactive
23,CNC(=O)c1[nH]cnc1C(=O)N[C@@H](Cc1ccccc1)C(=O)OCc1ccccc1,"inconclusive [activator, partial curve, poor fit]"
